These results are taken from US20220267438A1 (Janssen / Centocor, published 2022).

Experiment [1] has as its target T1, BCMW37 (recombinant human BCMA antigen) (human, UniProt Q02223 1-54, limits assumed).
T1 construct: also called BCMA BCMW37 chain; human BCMA (SPR antigen)
T1 sequence (looked up): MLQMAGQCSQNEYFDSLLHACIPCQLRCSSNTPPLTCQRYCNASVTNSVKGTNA
Briefly: SPR, BCMA binding after thermal stress.

For experiment [2], the target named is T1, BCMW37 (recombinant human BCMA antigen). In words: SPR, BCMA binding after chemical oxidation.
Experiment [3] has as its target T2, human CD3 (CD3ε of the TCR/CD3 complex) on primary human pan T cells (human, UniProt P07766).
T2 construct: whole, on cells; On T cells CD3ε stands in the whole TCR/CD3 complex
Briefly: flow cytometry, pan T cells, donor D203727; estimated, fixed saturation point from bioinformatic extrapolation. The protocol:
Flow cytometry was used to evaluate the CD3 arm (i.e., CD3B376) binding of BGCB491 to CD3⁺ pan T cells from 7 different healthy human. Cell-based EC₅₀ for CD3B376 could not be determined due to lack of saturation kinetics at 1 hour (FIG. 26). Bioinformatic extrapolation was performed (FIG. 27) using the CD3B376×Null control antibody (i.e., GCDB381) molecule, which saturates within 2 μM top concentration dose-response to constrain the top of the non-linear regression curve to generate a full curve that enables estimation of ECₓ values (Table 21).

Experiment [4] has as its target T3, human BCMA (B cell maturation antigen, TNFRSF17) on cells (human, UniProt Q02223 1-184).
T3 construct: whole, on cells; Target on H929 or MM.1R GPRC5D knockout cells, K562 cells expressing human BCMA, HEK293 cells of the cell microarray, and BCMA-only lymphoma lines; also called CD269; surface BCMA
T3 sequence (looked up): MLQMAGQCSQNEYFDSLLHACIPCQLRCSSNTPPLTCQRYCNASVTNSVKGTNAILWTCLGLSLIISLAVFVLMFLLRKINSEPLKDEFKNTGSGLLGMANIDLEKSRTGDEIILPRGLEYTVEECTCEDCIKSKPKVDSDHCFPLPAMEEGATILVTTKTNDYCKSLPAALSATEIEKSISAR
Briefly: flow cytometry, H929 GPRC5D KO cells, 1 h 37C; Run 2. The protocol:
First, FACS-based binding for GPRC5D and BCMA binding arms of the trispecific molecule was determined by measuring the effective concentration (EC) range from a dose-response curve using a 4-parameter fit at 37° C. for 1 hr. This was assessed using an H929 suite of cells (WT, GPRC5D-KO, BCMA-KO, and GPRC5D/BCMA KO), and a similar MM.1R suite. Cell based EC₅₀ is approximately 13 nM for WT H929 (FIGS. 2A-2D, Table 7) and 2.4 nM for WT MM.1R (FIGS. 3A-3D, Table 8). A clear avidity affect is observed as EC₅₀ and Bmax are both reduced in GPRC5D-KO and BCMA-KO lines which test monovalent binding of target binding arms (Table 7). Next, cell-based EC₅₀ was determined for the CD3-binding Fab arm using purified Pan T cells from three random donors. […] Next, dose responsive binding was assessed at 4° C. to remove any potential biological effects. As shown in FIGS. 5A-5C, binding is stronger (50-100 nM) at 4° C., compared to 37° C., which may indicate internalization. Additionally, two expression lots of BGCB463 (BGCB463.003 from transient transfection and BGCB463.004 from a stable transfection pool), were directly compared with binding to H929, MM.1R, and Pan T cells and no differences were noted (FIGS. 6A-6C).

The target of experiment [5] is T2, human CD3 (CD3ε of the TCR/CD3 complex) …. In words: flow cytometry, human pan T cells, Donor 3, 1 h 37C; Run 3. The protocol: (§1) For binding of BGCB463 to human and cynomolgus Pan T cells, three human donors (Hemacare) were selected, quickly thawed, resuspended, and aliquoted into a 96-well plate at 1×10⁶ cells/mL. Cells were then washed, Fc blocked if necessary (Innovex), and stained with viability dye (Invitrogen). BGCB463 and its corresponding isotype (B23B251) were diluted in complete media to an initial concentration of 2 μM and 1:3 serial dilutions in duplicate were performed for a dose-response curve. The cells were incubated with molecules at 4° C. or 37° C. for 1 hour. When necessary, incubation with 90% human serum (Sigma) was also performed as described above.
(§2) First, FACS-based binding for GPRC5D and BCMA binding arms of the trispecific molecule was determined by measuring the effective concentration (EC) range from a dose-response curve using a 4-parameter fit at 37° C. for 1 hr. This was assessed using an H929 suite of cells (WT, GPRC5D-KO, BCMA-KO, and GPRC5D/BCMA KO), and a similar MM.1R suite. Cell based EC₅₀ is approximately 13 nM for WT H929 (FIGS. 2A-2D, Table 7) and 2.4 nM for WT MM.1R (FIGS. 3A-3D, Table 8). […] Next, cell-based EC₅₀ was determined for the CD3-binding Fab arm using purified Pan T cells from three random donors. […] Next, dose responsive binding was assessed at 4° C. to remove any potential biological effects. […]

In experiment [6] the target is T3, human BCMA (B cell maturation antigen, …). In words: flow cytometry on K562 cells expressing human BCMA, 1 hr 37 C, Run 2. The protocol:
FIGS. 9A-E. BGCB463 (circles) or negative control B23B251 (triangles) were all incubated with K562 cells expressing human GPRC5D (FIG. 9A), human BCMA (FIG. 9B), cynomolgus GPRC5D (FIG. 9C) or cynomolgus BCMA (FIG. 9D) for 1 hr at 37° C. at a starting concentration of 2 μM. After secondary detection with AF647-anti-human IgG, the MFI signal was analyzed to generate an EC₅₀ and EC₉₀ (FIG. 9E). Data are representative of two independent experiments.
The GPRC5D (i.e., GC5B680) and BCMA binding arms were assessed for cross-reactivity to cynomolgus monkey as part of the BGCB463 molecule, which uses the identical binding arms as BGCB491. Cross reactivity to cynomolgus monkeys was profiled for both target-binding scFv arms using FACS-based cell binding at 37° C. for 1 hour with K562 stably expressing human or cynomolgus monkey GPRC5D or BCMA. The cell-based EC₅₀ value for the GC5B680 scFv arm was approximately 30 nM against human GPRC5D-expressing cells and about 10-fold weaker (approximately 400 nM) on cynomolgus monkey GPRC5D-expressing cells.

Experiment [7] addresses T2, human CD3 (CD3ε of the TCR/CD3 complex) …. In words: flow cytometry on Pan T cells, donor D329335, 1 hr at 4 C, AF647 secondary detection. The protocol: as §1, §2
Experiment [8] shares this target. In words: flow cytometry on Pan T cells, donor D326589, 1 hr at 4 C, AF647 secondary detection. The protocol: as §1, §2
Experiment [9] shares this target. Briefly: flow cytometry on Pan T cells, donor D326589, 1 hr at 37 C, AF647 secondary detection. The protocol:
as §1, §2

T2 sequence (P07766 23-207, one chain of several): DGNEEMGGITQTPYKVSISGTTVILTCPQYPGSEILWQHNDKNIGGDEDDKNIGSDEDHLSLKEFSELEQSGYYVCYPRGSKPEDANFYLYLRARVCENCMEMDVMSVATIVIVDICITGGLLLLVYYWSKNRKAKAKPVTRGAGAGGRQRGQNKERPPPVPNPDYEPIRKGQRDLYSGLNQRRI

B1: BGCB491 (other)
heavy: QVQLQQSGPRLVRPSQTLSLTCAISGDSVFNNNAAWSWIRQSPSRGLEWLGRTYYRSKWLYDYAVSVKSRITVNPDTSRNQFTLQLNSVTPEDTALYYCARGYSSSFDYWGQGTLVTVSSASTKGPSVFPLAPSSKSTSGGTAALGCLVKDYFPEPVTVSWNSGALTSGVHTFPAVLQSSGLYSLSSVVTVPSSSLGTQTYICNVNHKPSNTKVDKKVEPKSCDKTHTCPPCPAPEAAGGPSVFLFPPKPKDTLMISRTPEVTCVVVSVSHEDPEVKFNWYVDGVEVHNAKTKPREEQYNSTYRVVSVLTVLHQDWLNGKEYKCKVSNKALPAPIEKTISKAKGQPREPQVYTLPPSREEMTKNQVSLSCAVKGFYPSDIAVEWESNGQPENNYKTTPPVLDSDGSFFLVSKLTVDKSRWQQGNVFSCSVMHEALHNRFTQKSLSLSPGKGGGGSGGGGSGGGGSGGGGS[letters of about 100 residues not shown]QFPHTFGQGTKLEIKGGSEGKSSGSGSESKSTGGSQVTLKESGPVLVKPTETLTLTCTVSGFSLTNIRMSVSWIRQPPGKALEWLAHIFSNDEKSYSTSLKSRLTISRDTSKSQVVLTLTNVDPVDTATYYCARMRLPYGMDVWGQGTTVTVSS
light: QSALTQPASVSGSPGQSITISCTGTSSNIGTYKFVSWYQQHPDKAPKVLLYEVSKRPSGVSSRFSGSKSGNTASLTISGLQAEDQADYHCVSYAGSGTLLFGGGTKLTVLGQPKAAPSVTLFPPSSEELQANKATLVCLISDFYPGAVTVAWKADSSPVKAGVETTTPSKQSNNKYAASSYLSLTPEQWKSHRSYSCQVTHEGSTVEKTVAPTECS
chain: EIVLTQSPGTLSLSPGERATLSCRASQSISSSFLTWYQQKPGQAPRLLIYGASSRATGIPDRFSGGGSGTDFTLTISRLEPEDFAVYYCQHYGSSPMYTFGQGTKLEIKGGSEGKSSGSGSESKSTGGS[letters of about 100 residues not shown]DEGYSSGHYYGMDVWGQGTTVTVSSEPKSSDKTHTCPPCPAPEAAGGPSVFLFPPKPKDTLMISRTPEVTCVVVSVSHEDPEVKFNWYVDGVEVHNAKTKPREEQYNSTYRVVSVLTVLHQDWLNGKEYKCKVSNKALPAPIEKTISKAKGQPREPQVYTLPPSREEMTKNQVSLWCLVKGFYPSDIAVEWESNGQPENNYKTTPPVLDSDGSFFLYSKLTVDKSRWQQGNVFSCSVMHEALHNHYTQKSLSLSPGK
notes: Trispecific IgG1 antibody (L234A, L235A, D265S); Heavy chain 1 = anti-CD3 (CD3B376) Fab heavy chain, hole and RF mutations, with C-terminal anti-GPRC5D scFv (GC5B680); Heavy chain 2 = anti-BCMA scFv (BCMB519) - Fc knob; also called JNJ-79635322; BCMA×GPRC5D×CD3 trispecific mAb
Consider B1, for which the figures for the Kd in experiment [1] and in experiment [2] were 0.281 nM and 0.537 nM, respectively. The EC50 in experiment [3] was 3370 nM.

B2: BGCB463 (other)
heavy: QVQLQQSGPRLVRPSQTLSLTCAISGDSVFNNNAAWSWIRQSPSRGLEWLGRTYYRSKWLYDYAVSVKSRITVNPDTSRNQFTLQLNSVTPEDTALYYCARGYSSSFDYWGQGTLVTVSSASTKGPSVFPLAPSSKSTSGGTAALGCLVKDYFPEPVTVSWNSGALTSGVHTFPAVLQSSGLYSLSSVVTVPSSSLGTQTYICNVNHKPSNTKVDKKVEPKSCDKTHTCPPCPAPEAAGGPSVFLFPPKPKDTLMISRTPEVTCVVVSVSHEDPEVKFNWYVDGVEVHNAKTKPREEQYNSTYRVVSVLTVLHQDWLNGKEYKCKVSNKALPAPIEKTISKAKGQPREPQVYTLPPSREEMTKNQVSLSCAVKGFYPSDIAVEWESNGQPENNYKTTPPVLDSDGSFFLVSKLTVDKSRWQQGNVFSCSVMHEALHNRFTQKSLSLSPGK
light: B1 light
chain: [letters of about 100 residues not shown]QFPHTFGQGTKLEIKGGSEGKSSGSGSESKSTGGSQVTLKESGPVLVKPTETLTLTCTVSGFSLTNIRMSVSWIRQPPGKALEWLAHIFSNDEKSYSTSLKSRLTISRDTSKSQVVLTLTNVDPVDTATYYCARMRLPYGMDVWGQGTTVTVSSEPKSSDKTHTCPPCPAPEAAGGPSVFLFPPKPKDTLMISRTPEVTCVVVSVSHEDPEVKFNWYVDGVEVHNAKTKPREEQYNSTYRVVSVLTVLHQDWLNGKEYKCKVSNKALPAPIEKTISKAKGQPREPQVYTLPPSREEMTKNQVSLWCLVKGFYPSDIAVEWESNGQPENNYKTTPPVLDSDGSFFLYSKLTVDKSRWQQGNVFSCSVMHEALHNHYTQKSLSLSPGKGGSEGKSSGSGSESKSTGGSEIVLTQSPGTLSLSPGERATLSCRASQSISSSFLTWYQQKPGQAPRLLIYGASSRATGIPDRFSGGGSGTDFTLTISRLEPEDFAVYYCQHYGSSPMYTFGQGTKLEIKGGSEGKSSGSGSESKSTGGS[letters of about 100 residues not shown]DEGYSSGHYYGMDVWGQGTTVTVSS
notes: Trispecific IgG1 antibody (L234A, L235A, D265S); Heavy chain 1 = anti-CD3 (CD3B376) Fab heavy chain with hole and RF mutations; also called BGCB463.003; BGCB463.004
On to B2, for which the concentration for a half-maximal effect (EC50) in experiment [4] is 63.9 nM; in experiment [5], 360 nM; in experiment [6] it was 45.8 nM. Further, the “EC50 (read off the curve)” value in experiment [7] was ~30 nM; in experiment [8], ~30 nM; in experiment [9], ~100 nM.
